Test results reported in the supplement of paper PMC11417369.
± gives the standard deviation of the averaged measurements. This is one part of the list.

Each sequence was assayed on PfAP2-G AP2 domain (GST-tagged) (assay: gcPBM binding intensity (ln(normalized median fluorescence intensity)); higher = stronger DNA binding).
How it was run: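 Binding intensity is defined as the maximum Masliner-normalised natural-log median intensity across replicate spots for either probe orientation. It was measured on an Agilent 4 × 180k array of primer-extended double-stranded 36-bp intergenic genomic probes and negative controls, to which GST-tagged P. falciparum DNA-binding domains made in E. coli were applied for 1 h in 1× PBS with 1% milk, 0.2 mg/ml BSA, 0.5% salmon testes DNA and 0.03% Triton X-100. Detection was by Alexa488 anti-GST antibody and scanning at 488 nm.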

Sequence	gcPBM binding intensity (ln)
GCTTGGATATATTAATGTACTTATATATTATGTTGT [XGTACX_site3768]	11.2 ± 0.77
ATATTTTCAATGTTCACACATACACAAAAAAAAAAA [CACACA_site6077]	10.2 ± 0.41
TTTGTTGTTGTGAAACGTACTCATAGGATGTTGTAT [XGTACX_site5716]	11 ± 0.57
ATTAAAAAATCCATAGTGCACTACGATAGGTTCCGA [GTGCAC_site9463]	10.3 ± 0.22
AAAGATGGAGTGATATGTACTGATATATTATTATAT [XGTACX_site6500]	10.8 ± 0.52
ATATAGTAAAGTTATACACACATGAATTTTCCCATA [CACACA_site7457]	9.91 ± 0.085
ATATTTTAATTATAAAGTACATAAAAATATATAAAC [XGTACX_site6705]	11.2 ± 0.78
TAAAAATGTAAACACACACACATAAATATATTTTAT [CACACA_site5397]	9.98 ± 0.057
TTTTTTATTGTGATACGTATATTATTTTATGATAAA [CACACA_negctrl_site1591]	10.6 ± 0.27
TTTTTTAAACGTTTAAATAATTAAATATAAATAAAT [CACACA_negctrl_site1567]	9.72 ± 0.15
TGAACAACTATTACTGCACACATTCTTACACTATAT [CACACA_site4533]	10.23 ± 0.021
TACGCAAAATAAAATCAAAATATAAGGAAAAAAAAA [TGCATGCA_negctrl_site578]	9.77 ± 0.11
AGGTGTCATATATGCACACAAAAGTAACACGCACCT [CACACA_site472]	10.33 ± 0.042
AAAAAAGAAACAATCGCATGCAATGTTAATGTACAT [TGCATGCA_site395]	10.6 ± 0.4
GTGTAATGCTTATCGGTGCATATATATATATATATA	9.96 ± 0.22
GACCTACAAAAAGGCACACATATACTCATACATACA [CACACA_site5232]	10.2 ± 0.064
ACATTTATTTTGAATGGTACACTATTATTATGAAAT [XGTACX_site4384]	11 ± 0.59
AAAAAAAAAAAAGGTACTACACACTATTATCAATAG [XGTACX_site161]	11.1 ± 0.68
GATAATTTTTGCATATGTACTTAAAAATTAAAAATT [XGTACX_site7037]	11.3 ± 0.95
ATACTGTATGAAAGCACACATACTTATTACTAACAT [CACACA_site4164]	10.16 ± 0.085
CAAATAACAAAATAATGTACATTTATACTTTTTTTT [XGTACX_site943]	10.8 ± 0.38
TATACATATTTGTATTGTACATAAACTAAATCTTCA [XGTACX_site610]	11 ± 0.5

Sequence	gcPBM binding intensity (ln)
TAATATTTATCAAGTCGTACATAAAATGTATAATAA [XGTACX_site1103]	11.4 ± 1
ACAAAGAAATATAATACACACAAGAATATATTGGAT [CACACA_site3901]	9.88 ± 0.099
GTACAATAAGATGTAGCATGCCGTACCTTCACTACG [TGCATGCA_site235]	11.2 ± 0.28
TCTAATAAAATAAATACATGCATACATACATACATA [TGCATGCA_site895]	9.9 ± 0.16
AGGATTATATATTAATGTACCCGCGTTAATTTTTTT [XGTACX_site2878]	11.5 ± 0.88
AAATAGAGAAATACAAGTACATACTAAACCTATCTA [XGTACX_site1334]	11.3 ± 0.79
TATACTGTCAATTCTACACACCATAGGGGGAGCATA [CACACA_site1875]	11.1 ± 0.64
CACCAATTCATATGCACACACATCTGCATATTATAT [CACACA_site1773]	10.2 ± 0.12
ATTAAAAGAACAATGTAAAAAAAGCAAATTAAAGAT [TGCATGCA_negctrl_site360]	10.15 ± 0.035
ATGTATAAACATATATGTACTTAAATAAAATGTTAA [XGTACX_site4044]	11.2 ± 0.72
AAAAATAAAAAAATAATAAAATAAAAAATAAAAAAT [TGCATGCA_negctrl_site89]	9.56 ± 0.12
TAAAAAAACATATATTGTACGGAGATAATAATTTTT [XGTACX_site2946]	10.6 ± 0.31
GAAATGTGTAGACACGCACACACAAAAAAATATATA [CACACA_site2912]	10.2 ± 0.34
TTATTAAATGAAAAATGTACATATAAATGATTATAT [XGTACX_site2788]	11.1 ± 0.65
AAGCATGTAGAATAATGTACTTGTGATTTTAATATA [XGTACX_site8565]	10.9 ± 0.54
CCAAATTTATAAAGAACACACACATATATATATATA [CACACA_site7900]	10 ± 0.26
TATACATATTTAATATGTACATAATAATACTTATTC [XGTACX_site6939]	11.2 ± 0.76
TATATTAACAAAATGGTGCAATAATTTCTATATTAT [GTGCAC_site9857]	10.1 ± 0.22
AAAAAAAAAATACAGGTGCAATAAGAAAAAAATGGT	10.25 ± 0.085
ATATAGGTAATATTTTGTACATATTTTTGGGGTAGT [XGTACX_site5634]	11.1 ± 0.52
AATTCTTTTTTCAACACACACACACCCGAAAATATA [CACACA_site3111]	10.3 ± 0.28
CATACATACATACATACACACATACATATATATATA [CACACA_site8388]	10.6 ± 0.45

Sequence	gcPBM binding intensity (ln)
TCTAAAATAGTCCAGAGTACAAGAAACCATAATATA [XGTACX_site5237]	11.3 ± 0.79
ATATTTTTTGTATGTTGTACATAAAATATACATTTT [XGTACX_site6815]	11.2 ± 0.88
AGATACTTTTTTAAAAGTACAAAAACTTTCGATATA [XGTACX_site959]	11.3 ± 0.69
TTGCTTATATTTCTAAAATGTAAAAGACACAAAGGT [XGTACX_negctrl_site225]	10.5 ± 0.67
ATAAAAATATAAACATGTACATAAAAATCTATATAT [XGTACX_site405]	11.3 ± 0.67
AAAAAAAAAAAAAACACACACACACCCAAATATATA [CACACA_site1169]	10.2 ± 0.26
ATATATTTATTTATATGTACATAATATTTTTCTCAG [XGTACX_site800]	11.2 ± 0.56
TTTTTTATTACTTTGTGTACTTACACAGAACCTTAT [XGTACX_site6038]	11.5 ± 0.88
AAAAATGCAATTTAATGTACACATAAGATGTTATTT [XGTACX_site6853]	11.2 ± 0.79
TTCTAATATATGCATACACACAAATGTGAATATACA [CACACA_site2142]	10 ± 0.3
ATTAAATCTATATATACACACATGTTTGGTATATTC [CACACA_site2657]	9.9 ± 0.014
TTTGTAATAAACTACTTTTTTTTTTTTTTTTTTTTT [CACACA_negctrl_site571]	10.9 ± 0.35
TTTATATTACAATAATATATTAAAAAATAAAATATA [TGCATGCA_negctrl_site18]	9.47 ± 0.028
AAAAAAAATAGACACACACACATACACATAAATATA [CACACA_site7742]	10.2 ± 0.33
AGGGTTACAAGAGGAACACACAAAAAAATAAATAAA [CACACA_site1436]	10.2 ± 0.22
ATGTAGCCTTACGCTTGTACGAATATCTTAATTTTT [XGTACX_site4331]	10.8 ± 0.34
CGATTACTAATTTTTAGTACATATAATCAATATGTA [XGTACX_site7857]	11.1 ± 0.88
ATCTATTTCTATTGTTGTACTTATTTTTCATTGTTT [XGTACX_site6942]	11.6 ± 1
ATATATTTTATTACCAGTACATATATTAAAATAATA [XGTACX_site8440]	11 ± 0.69
TTCATATAAATACATGCACACAAAAATATCAATACA [CACACA_site8753]	10.2 ± 0.25
TATAATATAATATATATATATATATATATATAAGAA [CACACA_negctrl_site78]	9.57 ± 0.042
TATACAATATAAAATACACACGCACCCAAAAAAAAA [CACACA_site9174]	10.6 ± 0.4

Sequence	gcPBM binding intensity (ln)
ATTTTTTTATTTGATTGTACAATTTTCTTTCAAAAT [XGTACX_site2902]	11 ± 0.47
ATATAATGTGTAGGCCGTATTTACGTTTGGCAATCA [CACACA_negctrl_site1130]	10.3 ± 0.17
AGAGTATATATATATGCATGCATATCTCATATTTAT [TGCATGCA_site509]	9.71 ± 0.13
TAATGATAAATACATACACACAAAAAATAATATATA [CACACA_site2576]	9.91 ± 0.13
TGTTATTATTTGTACACACACATATAGATCCTTGTT [CACACA_site7667]	11.3 ± 0.83
TATTATAAAGAAATTACACACATGCAATGAAAAAAA [CACACA_site1697]	9.92 ± 0.028
TCGTTTCCTTAAAATTGTACTTTTTTTTTTTTTTTT [XGTACX_site64]	11.6 ± 0.99
ATTAAAGAGATATATACACACATTATGGGGGAATAA [CACACA_site6226]	10.8 ± 0.49
CCTAAATATTTTTTATGTACATATTTATCTAAATTT [XGTACX_site6835]	11.3 ± 0.76
TGAGGAAACATGAGATGTACATATAAATTTTTTTTT [XGTACX_site2595]	11.1 ± 0.71
ATAGAAATTATAAATAGTACATAATAAAAATGAGCA [XGTACX_site822]	11.1 ± 0.8
TAAGAAATAAATAGTACACACATAGACACCCACCCA [CACACA_site8429]	11.7 ± 0.8
AAACAAAATGGTAACACACACATATATAAATATGTA [CACACA_site6994]	10.2 ± 0.35
AACGAGCAAGACGGGGTGCACACAAACTAATATGCC [GTGCAC_site9436]	10.7 ± 0.59
ATAATATAAACATATTGTACACATATATTGCTATTT [XGTACX_site2799]	11.3 ± 0.76
AAAAAAAAATATATATATATATATATAAATAAATTT [CACACA_negctrl_site519]	9.315 ± 0.007
AAATATAAAAAAAATATATAATTTTTACATCGAATT [CACACA_negctrl_site544]	9.48 ± 0.38
TAATAAAAGATATATACACACAAATAAATAAATAAA [CACACA_site7818]	9.75 ± 0.014
AAGAAAATAGGGTTCATAGGATTATACTTTTGGAAT [TGCATGCA_negctrl_site80]	10.1
TTCTATGAATTCATAGTGCAAATGAGTTATTTTTTC [GTGCAC_site9709]	9.8 ± 0.085
TTATTATTGTTATGTTGTACTTTTACAAACTTTTTG [XGTACX_site8797]	11.4 ± 0.74
ATATATTTATTAAGGTGTACAAAAATTATGTTGCAT [XGTACX_site7546]	11.4 ± 0.91
